Screen size: about 43,000 compounds; about 200 (0.47%) were called active. About 12% were inconclusive and are not listed. Calls follow the shape of the dose curve; as a rule, active = well fitted cell-killing curve with a large enough effect; inconclusive = small, poorly fitted or top-dose-only effect, or effect the other way; inactive = flat fitted curve, though single readings scatter. The list shows a part of the results.
Assay: Cell viability qHTS assay in S16 Pmp22-F2sN cells; also: nearly all actives have a fitted effect of over 65% in size
Settings: S16 Pmp22-F2sN Schwann cells viability, CellTiter-Glo, 24 h; series mostly up to 57.5 µM; activity change, negative = cytotoxicity: at the top concentration
Summary of the method: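 Viability was measured by CellTiter-Glo luminescence (15 min, room temperature). This followed 24 h at 37 °C of compound exposure (23 nL pin transfer) in S16 Pmp22-F2sN Schwann cells, 500-1,000 per well.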
% is scaled to controls: 0 for no effect and ±100 for the full control effect.

| SMILES | activity change, negative = cytotoxicity |
| --- | --- |
| Cc1ccc(-c2nc3scc(CCNS(=O)(=O)c4ccc(F)c(C)c4)n3n2)cc1 | inactive: -1.96% |
| CCOc1cccc(CC(=O)N2CCc3c([nH]c4ccccc34)C2c2ccccc2)c1OCC (stereo unspecified) | inactive: -17.2% |
| CCC1CCCCN1CCCNC(=O)c1ccc2c(c1)N(Cc1ccccc1)C(=O)c1ccccc1S2(=O)=O (stereo unspecified) | inactive: -17.1% |
| CCn1nc(C)c2c(-c3ccccc3)cc(=O)n(C(C)C(=O)NCc3cccc(OC)c3)c21 (stereo unspecified) | inactive: 9.57% |
| CCN(CC)c1ccc(CN(C(=O)Cc2coc3ccc(C)cc23)C2CCS(=O)(=O)C2)cc1 (stereo unspecified) | inactive: -8.95% |
| COc1ccc(C(=O)Nc2cc(C(C)C)c(O)c(S(=O)(=O)c3ccc(Cl)cc3)c2C)cc1 | inactive: -6.57% |
| CCOc1ccccc1CNCc1c(C(=O)O)c(C)n(Cc2ccc(Cl)cc2)c1C | inactive: -21.5% |
| CCN(Cc1ccccc1)Cc1c(O)ccc2c(=O)c(-c3ccccc3)c(C(F)(F)F)oc12 | inactive: 2.59% |
| Cc1ccc(Cl)cc1NC(=O)CSc1ccc(C(=O)O)cn1 | inactive: 0.715% |
| CCN(CC)c1ccc(NC(=O)c2cc(C)nc3c2c(C)nn3-c2cccc(F)c2)c(C)c1 | inactive: 7.5% |
| c1ccc(-c2nnc(CN3CCN(c4ccccn4)CC3)o2)cc1 | inactive: 4.4% |
| Cc1ccc(OCC(=O)OCc2cc(=O)n3nc(C4CCCCC4)sc3n2)cc1C | inactive: 2.45% |
| O=C1CC(c2ccccc2)Sc2nc(-c3ccc(F)cc3)nn21 (stereo unspecified) | inactive: 1.13% |
| O=C(c1[nH]c2ccccc2c1Sc1ccc(Cl)cc1)N1CCCCC1 | inactive: 1.33% |
| CCC1CN(C(=O)N2CCC(C(=O)NCCc3ccccc3C)CC2)c2ccccc2O1 (stereo unspecified) | inactive: -19.1% |
| Cc1ccc(C)c(Nc2ncnc3onc(C)c23)c1 | inactive: -2.53% |
| COc1ccc(NC(=O)CCSc2nc(-c3ccco3)cc(C(F)(F)F)n2)cc1 | inactive: -3.83% |
| COc1ccc(NC(=O)CSc2ncccc2C(=O)O)cc1OC | inactive: 3.48% |
| COc1ccc(-c2nc3cc(C(C)C)ccc3o2)cc1NC(=O)COc1ccc(C)cc1C | inactive: 7.55% |
| O=C(Cn1c(=O)c2ccccc2n(CC(=O)Nc2ccc(F)cc2F)c1=O)NCCc1ccccc1 | inactive: 26.2% |
| CCN(C(=O)c1cc2c(=O)oc3ccc(C)cc3c2s1)c1cc(OC)ccc1OC | inactive: 1.51% |

| SMILES | activity change, negative = cytotoxicity |
| --- | --- |
| COc1ccc(CNC(=O)CN2N=C(c3ccccc3)CCC2=O)c(OC)c1 | inactive: 12.5% |
| CCn1c(=O)c(=O)n(CC)c2cc(N3CCCCC3)c(NC(=O)c3ccc(Cl)cc3)cc21 | inactive: -0.561% |
| COCCCNc1nc2cc(OC)c(OC)cc2c2nc(-c3ccccc3)nn12 | inactive: 4.22% |
| Cc1ccccc1N1CC(C(=O)Nc2ccc(Br)cc2)CC1=O (stereo unspecified) | inactive: -0.641% |
| COc1ccc(C(=O)NCc2nnc(SCC(=O)Nc3ccccc3)n2-c2ccccc2)cc1 | inactive: -13.9% |
| COc1cc(Cl)c(C)cc1NC(=O)c1ccc2c(SCC(=O)O)c3c(nc2c1)CCCC3 | inactive: 1.75% |
| O=C(CSc1n[nH]c(-c2ccccc2)n1)NCCCc1ccccc1 | inactive: 10.7% |
| Cc1ccc(-n2nnc(-c3nsc(NC(=O)c4cccc(Cl)c4)n3)c2C)cc1C | inactive: -23.7% |
| Cc1nnc(N2CCCC(C(=O)NCc3ccccc3F)C2)c2nn(-c3ccc(Cl)cc3)c(C)c12 (stereo unspecified) | inactive: 9.77% |
| CC(C)CCNC(=O)c1ccc2c(c1)N(Cc1cccc(Cl)c1)C(=O)c1ccccc1S2 | inactive: -10.8% |
| CCCC(=O)n1nc(-c2ccco2)nc1NCc1ccccc1Cl | inactive: 0.107% |
| O=C(Nc1nnc(S(=O)(=O)N2CCOCC2)s1)c1ccccc1Cl | inactive: -7.16% |
| O=C(Nc1ccc2nc(SCc3ccccc3)sc2c1)c1ccccc1F | inactive: 5.57% |
| O=C(Nc1ccc(F)c(Cl)c1)c1cc(S(=O)(=O)N2CCc3ccccc3C2)ccc1F | inactive: -8.64% |
| Cc1ccc(OCC(=O)Nc2ccc3c(c2)nc(CCNC(=O)c2ccco2)n3C)cc1 | inactive: 8.11% |
| COc1ccc(N2CCN(C(=O)CN3C(=O)CSc4c3c(C)nn4-c3ccccc3)CC2)cc1 | inactive: 42.5% |
| CC(=O)Nc1ccc(NC(=O)C2CCCN2S(=O)(=O)c2ccc3c(c2)CCCC(=O)N3)cc1 (stereo unspecified) | inactive: -15.9% |
| COc1ccc(OC)c(CCNC(=O)c2cc3c(=O)oc4ccc(C)cc4c3s2)c1 | inactive: 1.3% |
| Cc1ccsc1CN(C(=O)c1oc2cc(Br)ccc2c1C)C1CCS(=O)(=O)C1 (stereo unspecified) | inactive: -17% |
| Cc1cc(C(=O)Nc2ccc(C(C)C)cc2)c2c(C)nn(-c3ccccc3)c2n1 | inactive: -0.494% |
| COC(=O)Cn1c(=O)c2cccn2c2cccnc21 | inactive: 7.22% |

| SMILES | activity change, negative = cytotoxicity |
| --- | --- |
| COc1ccc(Cn2c(=O)c3oc4ccccc4c3n(Cc3cccc(C)c3)c2=O)cc1 | inactive: 0.562% |
| CCOc1ccccc1NC(=O)Cn1cc(C(=O)c2ccc(Cl)cc2)c(=O)c2ccc(C)nc21 | inactive: 5.75% |
| Cc1cccc2c(=O)cc(CSc3ccccc3NC(=O)c3cccc(F)c3)[nH]c12 | inactive: -13.3% |
| COc1ccccc1CNc1ccc(-c2nc(-c3ccco3)no2)cc1[N+](=O)[O-] | inactive: 8.17% |
| CN(C)CCCN(C(=O)c1ccc2c(c1)OCCO2)c1nc2ccccc2s1 | inactive: -0.549% |
| COc1ccc(NC(=O)Cn2cnc3c(oc4ccccc43)c2=O)cc1OC | inactive: -3.31% |
| CC(C)NC(=O)C1CCC(Cn2c(=O)c3sccc3n(CC(=O)NCc3ccccc3)c2=O)CC1 (stereo unspecified) | inactive: 25.4% |
| CCCOc1c(Cl)cc(C(=O)N(Cc2cccc(OC)c2)C2CCS(=O)(=O)C2)cc1Cl (stereo unspecified) | inactive: 5.68% |
| CCOc1ccc(NC(=O)c2cnc(N3CCCCC3)c3ccccc23)cc1 | inactive: -1.74% |
| CN(c1ccccc1)S(=O)(=O)c1nnc(NC(=O)c2ccccc2)s1 | inactive: -2.14% |
| CCOC(=O)c1c(-c2ccccc2)csc1NC(=O)c1cc(-c2ccc(F)cc2)on1 | inactive: 2.83% |
| O=C(NCc1ccc2c(c1)OCO2)c1ccc2c(c1)N(Cc1ccccc1)C(=O)c1ccccc1S2=O (stereo unspecified) | inactive: -1.39% |
| COc1cccc(NC(=O)C2CCCN(S(=O)(=O)c3ccc4[nH]c(=O)ccc4c3)C2)c1 (stereo unspecified) | inactive: -2.54% |
| Cn1cc(C(=O)N2CCN(c3cccc(C(F)(F)F)c3)CC2)c2c3ccccc3n(C)c2c1=O | inactive: -13.7% |
| CC(=O)Nc1ccc(NC(=O)Cn2nc(C(=O)Nc3ccc(C)cc3)ccc2=O)cc1 | inactive: -4.89% |
| CCOc1ccc(-c2cc3c(=O)n(CC(=O)NCc4ccc(Cl)cc4)ccn3n2)cc1 | inactive: 4.57% |
| O=C(O)CCn1cnc2onc(-c3cc(F)cc(F)c3)c2c1=O | inactive: 24.5% |
| CCCOc1ccc(Oc2nc(NCC(C)C)nc(N3CCOCC3)n2)nn1 | inactive: 0.0332% |
| Cc1ccc(-n2c(SCC(=O)O)nc3sc4c(c3c2=O)CCCC4)cc1 | inactive: 11.6% |

From PubChem BioAssay AID1508642 (National Center for Advancing Translational Sciences (NCATS), 2021)
